The list shows a part of the results.
T1: UNK ZnF1-6 (called full-length) (human, UniProt Q9C0B0 30-357)
T1 sequence: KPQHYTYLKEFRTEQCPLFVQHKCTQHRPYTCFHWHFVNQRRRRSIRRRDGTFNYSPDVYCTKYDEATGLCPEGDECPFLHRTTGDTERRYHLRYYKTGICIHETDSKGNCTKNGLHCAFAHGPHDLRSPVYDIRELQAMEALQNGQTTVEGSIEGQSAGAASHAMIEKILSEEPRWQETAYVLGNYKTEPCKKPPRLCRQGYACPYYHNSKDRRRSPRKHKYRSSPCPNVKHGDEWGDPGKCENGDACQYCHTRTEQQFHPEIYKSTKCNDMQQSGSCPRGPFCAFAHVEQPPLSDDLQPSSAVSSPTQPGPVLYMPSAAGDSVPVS

B1: chr10:73479331:73479449:-|CDS|ENSG00000107758|unk|FALSE|unique (ssRNA)
RNA: GGGAGUUCUACAGUCCGACGAUCGUUGAUGUUCUGAAGAACCACUUGGUGAAAGAAGGUCGAGUAGAUGAAGAAAUUGCGCUUAGAAUUAUCAAUGAGGGUGCUGCCAUCCUUCGGAGAGAGAAAACCAUGAUAGAAGUAGAACAACAGAGGAUUGAGCAUCA
B2: chr14:75048437:75048538:-|CDS|ENSG00000119684|unk|FALSE|unique (ssRNA)
RNA: GGGAGUUCUACAGUCCGACGAUCUCAGAAGCGUGUGACUUCCGAUGAGAGGAGCAAUUUCCAGGAAGCAUGUAAUAAUAUUUUAGAUUCCUAUGAGAUGUUUAAUUUGCAGUCAAAAGCUGUGAAAAGAAAAACUACUGCAGACAACAGAGGAUUGAGCAUCA
B3: chr12:54238554:54238587:-|3pUTR|ENSG00000094916|msi1_unk|FALSE|overlapping (ssRNA)
RNA: GGGAGUUCUACAGUCCGACGAUCGGGAGCACCCAUUUUAAACCUGGAGAGAACCAUGAUGUUUUCUUCUUCAAAUAACAAUCUAGUUUUUUUUCCCCCAGUACUAAAAUUGUAUUGUCUUUCAGACAAUAUAAUUUUUAUUUACAACAGAGGAUUGAGCAUCA
B4: chr5:133074000:133074114:+|CDS|ENSG00000170606|unk|total|mutant (ssRNA)
RNA: GGGAGUUCUACAGUCCGACGAUCUCUUGCAUAUGGAAUCUAUAAGCAGGAUCUUCCUGCCUCCGAAGAGAAACCAAGAAAUGCCGUUUUUGCCGACAUGGGCCACUCUGCUUAUCAAGUUUCUGUAUGUGCAUUUAACCGAGGCAACAGAGGAUUGAGCAUCA
B5: ENSG00000198589:be:win_5401|CDS|ENSG00000198589|bound_else_gene|NA|bound_elsewhere_windowed (ssRNA)
RNA: GGGAGUUCUACAGUCCGACGAUCGAACACGCUUUGGAAAAGGCAGCUCCUCUCCUUCGUGAGAUUUUUGUGGAUUUUGCACCUUUUCUUUCUCGGACACUUUUGGGUAGCCAUGGACAAGAACUGCUUAUAGAAGGAACAAGUCAACAGAGGAUUGAGCAUCA
B6: chr2:112756978:112757080:-|CDS|ENSG00000169607|unk|total|mutant (ssRNA)
RNA: GGGAGUUCUACAGUCCGACGAUCCUUCUGGGCAAAAGGCUGACUUCAGAAUGUGUUUCUUCUAACCCAUACUCUAAGCCUUCCCGCAAGAGUUUUCAACAGUGUGAAGCUGGAUCGUCCACAACAGGAGAACUGUCAAGAAAACAACAGAGGAUUGAGCAUCA
B7: chr19:36514967:36515079:-|CDS|ENSG00000254004|unk|total|mutant (ssRNA)
RNA: GGGAGUUCUACAGUCCGACGAUCCAUGAAUGCACUGAAUGUGGUAAAGUGUGCUCUCGAGUCUCAUCUCUUACUCUACACCUCCGAAGUCACACAGGAAAGAAGGCAUAUAAAUGUAAUAAAUGUGGAAAAGCCUUCAGCCAGCAACAGAGGAUUGAGCAUCA
B8: chr6:52502144:52502313:-|3pUTR|ENSG00000065308|msi1|total|mutant (ssRNA)
RNA: GGGAGUUCUACAGUCCGACGAUCUCAGCCAUUCACAAGCAUUCAAAACCAAACCAAACAGCAGUUCAUAUACCUGCCUGAGACCGGCUGGUCCUCACCUCCAGAGCCAGCCAGCCCCGUCAGGGGCCAAACUUACUACCUUGACAACAGAGGAUUGAGCAUCA
B9: chr13:106490488:106490589:-|3pUTR|ENSG00000125266|msi1|FALSE|unique (ssRNA)
RNA: GGGAGUUCUACAGUCCGACGAUCAGCCAUCAGAAGUUACUUUUAGGAUGGGGGAGAGGGGCGAGAAGGGGAAAAAUGGGAAAUAGUCUGAUUUUAAUGAAAUCAAAUGUAUGUAUCAUCAGUUGGCUACGUUUUGGUUCUAUGCAACAGAGGAUUGAGCAUCA
B10: ENSG00000107863:be:win_4151|CDS|ENSG00000107863|bound_else_gene|NA|bound_elsewhere_windowed (ssRNA)
RNA: GGGAGUUCUACAGUCCGACGAUCAUUCAGCUACUAGUGACUCAACAAAAUCUAAGGGUUCUUGGGGAUCUGGAAAGGAUCAGUAUAGCAGGGAACUGCUUGUGUCCUCCAUCUUUGCAGCUGCUAGUCGCAAGAGGAAGAAGCCAACAGAGGAUUGAGCAUCA
B11: chr5:154417748:154417849:+|3pUTR|ENSG00000164574|msi1|total|mutant (ssRNA)
RNA: GGGAGUUCUACAGUCCGACGAUCCAGCACCAGCUUUACAGGGCAGUGUUUCAGAUGGCCCUGAGCCCACGGAAAAGGCCAGGCCGACCUCCAAACCCGAAAUGCUGGCUGAUUUGCCCUGAUCCAUGCUUCCAUUUCCCUGUCCAACAGAGGAUUGAGCAUCA
B12: chr1:67003359:67003460:-|3pUTR|ENSG00000116704|msi1|FALSE|unique (ssRNA)
RNA: GGGAGUUCUACAGUCCGACGAUCACUCAAAAGCCGCAAAUCUGUAAAUUGGAUUAAGAACACCUGCCCUACCUACCCGGCAAUAGUGUGAAUCCAAAUGCUGCAAUGUGAGAUGAGGUACAAGUAAAGAGCUGUGUUUUGUAACAACAGAGGAUUGAGCAUCA
B13: chr16:23064695:23064796:-|3pUTR|ENSG00000103404|msi1|total|mutant (ssRNA)
RNA: GGGAGUUCUACAGUCCGACGAUCGUUUAUGGAGGGCCUUCUUUGAGCACAGAGGCAAAACUGAAAGCUUCAGGGAUUUGCUGCCGCUGAGGAGCCCUGGGAGCACAGCCCAUCAAGCAAGGGAUGUGAUGGUGUCCUAAAUGGCAACAGAGGAUUGAGCAUCA
B14: ENSG00000198589:be:win_7401|CDS|ENSG00000198589|bound_else_gene|NA|bound_elsewhere_windowed (ssRNA)
RNA: GGGAGUUCUACAGUCCGACGAUCUUCUCAACUACUCAUAGAGCCCCAUCCUCCCAGAGGUUCUGCCAUGCAAGUGAGUCCAUUGAUGUUCACAGACAAAGCCCAGCAGGAUGUUAUCAUGGUCCUCAAGUUUCCCUCCAACUCCAACAGAGGAUUGAGCAUCA
B15: chr12:56416428:56416529:-|3pUTR|ENSG00000111602|msi1|total|mutant (ssRNA)
RNA: GGGAGUUCUACAGUCCGACGAUCAUGUUCUUACCCAUUCUUGGAAACGUCAGCUUUCUUGCUUCCUGUGCUUCCAGCCGAGGCCGGGCAAAGGUGAGAUUGAGAAAACCGCCAUUCAGCUCAGGAAGGCUUCUAAGUAAAGGACAACAGAGGAUUGAGCAUCA
B16: chr5:132696315:132696416:-|3pUTR|ENSG00000131437|msi1|FALSE|unique (ssRNA)
RNA: GGGAGUUCUACAGUCCGACGAUCGUUGUACUACUACUCUUCAAUUGUACUGUGCAGGGAAGUUGGGGGAACAGUUCAUACUAUAGAGAGUUACAGUUUAGAUGUAUGUGUAAAUCGAUUAGCUAUUUAUCCAACUACUGUAUACAACAGAGGAUUGAGCAUCA
B17: chr1:225845535:225846932:-|three_prime_utr|ENSG00000196187|control|control|control (ssRNA)
RNA: GGGAGUUCUACAGUCCGACGAUCGAACAGGUUGGGAGGUGGCCAGUGCUCCUGCCAGCUGUGCACACAUCUCUGUAUCCCGCUAGAGUUCUGUGUUUUUGUAUCAUGUUGUCAGGGACGCUAGCUGGGUCAGGGUUACCCCAUCAACAGAGGAUUGAGCAUCA
B18: chr5:35065091:35066102:-|CDS|ENSG00000113494|control|control|control (ssRNA)
RNA: GGGAGUUCUACAGUCCGACGAUCAAAAUCCUCUCAAACCAUUAAGUCUAGAGAAGAGGGAAAGGCAACCCAGCAGAGGGAGGUAGAAAGCUUCCAUUCUGAGACUGACCAGGAUACGCCCUGGCUGCUGCCCCAGGAGAAAACCAACAGAGGAUUGAGCAUCA
B19: chr5:43486917:43487111:-|CDS|ENSG00000172244|control|control|control (ssRNA)
RNA: GGGAGUUCUACAGUCCGACGAUCUUAUAAACCAGGAUCUUCAGAAACCUUGCUAGGAGAAGUUAAUGAAAAUAGAGUAUCAAUAGCAUUGAAAAAAACCUCUGAAAUCCUUCACGAUAUUGACUGUCUUCUAUCAAACUCUAACAACAGAGGAUUGAGCAUCA
B20: chr7:56063203:56063317:+|3pUTR|ENSG00000146731|unk|FALSE|unique (ssRNA)
RNA: GGGAGUUCUACAGUCCGACGAUCCCCAUAUGAAAAAAGGAGAGAACACUGGCAUCUGUUGAAAUUUGGAAGUUCUGAAAUUAUAGUAUUUUUAAAAAUUGCACUGAAGUGUAUACACAUAAAGCAGGUCUUUUAUCCAGUGAACAACAGAGGAUUGAGCAUCA
B21: chr12:98549999:98550103:+|3pUTR|ENSG00000120802|unk|total|mutant (ssRNA)
RNA: GGGAGUUCUACAGUCCGACGAUCUGUUUCCCAUACUGUUUUCAGCCUUUUGUUUAUAAUCCGAAAUUGUGAGAAGCUUCAUUCCGUGUUUAAAAAUGUGGGGAGAUAAAUCAGACUUAACAUGUAUGUAAGAUCAAUUCACUUCAACAGAGGAUUGAGCAUCA
B22: chr10:96982068:96982170:+|CDS|ENSG00000196233|unk|FALSE|unique (ssRNA)
RNA: GGGAGUUCUACAGUCCGACGAUCUCAGCAUUGGCAUCAGAGGCAGUUUUCACUCCUAAGCAGACCCUUACAAUUCCAGCCCCUAGACAUACAGUAGAUGUGCAGCUUCCCAGAGAAGACAACCCUGAAGAACCUAGCAAGGAACAACAGAGGAUUGAGCAUCA

molecular target: T1, UNK ZnF1-6 (called full-length); assay: nsRBNS (natural sequence RNA bind-n-seq); RBNS binding buffer (assumed for nsRBNS): 25 mM Tris pH 7.5, 150 mM KCl, 3 mM MgCl2, 0.01% Triton X-100, 500 ug/ml BSA, 20 U/ml SUPERase-In, 4 C; UNK is unkempt and MSI1 is Musashi-1; names of the RNAs are library labels; protein concentration not given here; high values mean tight binding

| Binder | binding signal [enrichment R] |
| --- | --- |
| B1 | 2.18 |
| B2 | 0.697 |
| B3 | 9 |
| B4 | 0.393 |
| B5 | 0.859 |
| B6 | 0.67 |
| B7 | 0.434 |
| B8 | 0.694 |
| B9 | 4.55 |
| B10 | 0.489 |
| B11 | 0.644 |
| B12 | 0.49 |
| B13 | 0.951 |
| B14 | 0.555 |
| B15 | 0.546 |
| B16 | 2.26 |
| B17 | 0.838 |
| B18 | 0.746 |
| B19 | 0.69 |
| B20 | 2.8 |
| B21 | 0.419 |
| B22 | 1.04 |

— article PMC12136788
